The other results are listed elsewhere or left out.
How the values were obtained:
Assay in all cases: glycan array binding signal (z-score within array); higher = stronger binding
Settings in all cases: glycan notation: IUPAC condensed, linker removed
Fuc(a1-2)Gal = molecular target: Fuc(a1-2)Gal
In short: (§1)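 Glycan array binding is given as a within-array Z-score, which can be read as non-binding when negative. The arrays, 3228 of them, came from the Consortium for Functional Glycomics database and were retained only where the protein sequence was available. Z-scores were averaged across arrays of the same protein sequence at different concentrations or buffers and across linkers.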

Fuc(a1-2)Gal(b1-3)GalNAc = molecular target: Fuc(a1-2)Gal(b1-3)GalNAc
In short: as §1

[1] = molecular target: Fuc(a1-2)Gal(b1-3)GalNAc(a1-3)[Fuc(a1-2)]Gal(b1-4)Glc
In short: as §1

[2] = molecular target: Fuc(a1-2)Gal(b1-3)GalNAc(a1-3)[Fuc(a1-2)]Gal(b1-4)GlcNAc
In short: as §1

[3] = molecular target: Fuc(a1-2)Gal(b1-3)GalNAc(b1-3)Gal
In short: as §1

[4] = molecular target: Fuc(a1-2)Gal(b1-3)GalNAc(b1-3)Gal(a1-4)Gal(b1-4)Glc
In short: as §1

[5] = molecular target: Fuc(a1-2)Gal(b1-3)GalNAc(b1-4)[Neu5Ac(a2-3)]Gal(b1-4)Glc
In short: as §1

Fuc(a1-2)Gal(b1-3)GlcNAc = molecular target: Fuc(a1-2)Gal(b1-3)GlcNAc
In short: as §1

[6] = molecular target: Fuc(a1-2)Gal(b1-3)GlcNAc(b1-2)Man(a1-3)[Fuc(a1-2)Gal(b1-3)GlcNAc(b1-2)Man(a1-6)]Man(b1-4)GlcNAc(b1-4)GlcNAc
In short: as §1

[7] = molecular target: Fuc(a1-2)Gal(b1-3)GlcNAc(b1-2)Man(a1-3)[Fuc(a1-2)Gal(b1-3)GlcNAc(b1-2)Man(a1-6)]Man(b1-4)GlcNAc(b1-4)[Fuc(a1-6)]GlcNAc
In short: as §1

[8] = molecular target: Fuc(a1-2)Gal(b1-3)GlcNAc(b1-3)Gal(b1-4)Glc
In short: as §1

[9] = molecular target: Fuc(a1-2)Gal(b1-3)GlcNAc(b1-3)GalNAc
In short: as §1

[10] = molecular target: Fuc(a1-2)Gal(b1-3)GlcNAc(b1-3)[Fuc(a1-3)[Gal(b1-4)]GlcNAc(b1-6)]Gal(b1-4)Glc
In short: as §1

[11] = molecular target: Fuc(a1-2)Gal(b1-3)GlcNAc(b1-3)[Gal(b1-4)GlcNAc(b1-6)]Gal(b1-4)Glc
In short: as §1

[12] = molecular target: Fuc(a1-2)Gal(b1-3)GlcNAc(b1-3)[Neu5Ac(a2-6)Gal(b1-4)GlcNAc(b1-6)]Gal(b1-4)Glc
In short: as §1

[13] = molecular target: Fuc(a1-2)Gal(b1-3)[Fuc(a1-4)]GlcNAc
In short: as §1

[14] = molecular target: Fuc(a1-2)Gal(b1-3)[Fuc(a1-4)]GlcNAc(b1-2)Man(a1-3)[Fuc(a1-2)Gal(b1-3)[Fuc(a1-4)]GlcNAc(b1-2)Man(a1-6)]Man(b1-4)GlcNAc(b1-4)GlcNAc
In short: as §1

[15] = molecular target: Fuc(a1-2)Gal(b1-3)[Fuc(a1-4)]GlcNAc(b1-3)[Fuc(a1-3)[Gal(b1-4)]GlcNAc(b1-6)]Gal(b1-4)Glc
In short: as §1

[16] = molecular target: Fuc(a1-2)Gal(b1-3)[Fuc(a1-4)]GlcNAc(b1-3)[Gal(b1-4)GlcNAc(b1-6)]Gal(b1-4)Glc
In short: as §1

Fuc(a1-2)Gal(b1-4)Glc = molecular target: Fuc(a1-2)Gal(b1-4)Glc
In short: as §1

Fuc(a1-2)Gal(b1-4)Glc6S = molecular target: Fuc(a1-2)Gal(b1-4)Glc6S
In short: as §1

Fuc(a1-2)Gal(b1-4)GlcNAc = molecular target: Fuc(a1-2)Gal(b1-4)GlcNAc
In short: as §1

[17] = molecular target: Fuc(a1-2)Gal(b1-4)GlcNAc(b1-2)Man(a1-3)[Fuc(a1-2)Gal(b1-4)GlcNAc(b1-2)Man(a1-6)]Man(b1-4)GlcNAc(b1-4)GlcNAc
In short: as §1

[18] = molecular target: Fuc(a1-2)Gal(b1-4)GlcNAc(b1-2)Man(a1-3)[Fuc(a1-2)Gal(b1-4)GlcNAc(b1-2)Man(a1-6)]Man(b1-4)GlcNAc(b1-4)[Fuc(a1-6)]GlcNAc
In short: as §1

[19] = molecular target: Fuc(a1-2)Gal(b1-4)GlcNAc(b1-2)[Fuc(a1-2)Gal(b1-4)GlcNAc(b1-4)]Man(a1-3)[Fuc(a1-2)Gal(b1-4)GlcNAc(b1-2)Man(a1-6)]Man(b1-4)GlcNAc(b1-4)GlcNAc
In short: as §1

[20] = molecular target: Fuc(a1-2)Gal(b1-4)GlcNAc(b1-3)Gal(b1-4)GlcNAc
In short: as §1

[21] = molecular target: Fuc(a1-2)Gal(b1-4)GlcNAc(b1-3)Gal(b1-4)GlcNAc(b1-3)Gal(b1-4)GlcNAc
In short: as §1

[22] = molecular target: Fuc(a1-2)Gal(b1-4)GlcNAc(b1-3)GalNAc
In short: as §1

[23] = molecular target: Fuc(a1-2)Gal(b1-4)GlcNAc(b1-3)[Fuc(a1-2)Gal(b1-4)GlcNAc(b1-6)]GalNAc
In short: as §1

[24] = molecular target: Fuc(a1-2)Gal(b1-4)GlcNAc6S
In short: as §1

B1: CVN (Nostoc ellipsosporum), P81180 (protein)
chain: LGKFSQTCYNSAIQGSVLTSTCERTNGGYNTSSIDLNSVIENVDGSLKWQPSNFIETCRNTQLAGSSELAAECKTRAQQFVSTKINLDDHIANIDGTLKYE
B1 was tested, and the “glycan array binding signal (z-score)” value (Fuc(a1-2)Gal) was -0.305, the “glycan array binding signal (z-score)” value (Fuc(a1-2)Gal(b1-3)GalNAc) was -0.301 and the “glycan array binding signal (z-score)” value [1] was -0.181. The “glycan array binding signal (z-score)” value [2] was -0.307, the “glycan array binding signal (z-score)” value [3] was -0.293 and the “glycan array binding signal (z-score)” value [4] was -0.304. For the same binder, the “glycan array binding signal (z-score)” value [5] was -0.232, the “glycan array binding signal (z-score)” value (Fuc(a1-2)Gal(b1-3)GlcNAc) was -0.302 and the “glycan array binding signal (z-score)” value [6] was 1.62. The “glycan array binding signal (z-score)” value [7] was 1.94, the “glycan array binding signal (z-score)” value [8] was 0.846 and the “glycan array binding signal (z-score)” value [9] was -0.163. For the same binder, the “glycan array binding signal (z-score)” value [10] was -0.199, the “glycan array binding signal (z-score)” value [11] was -0.299 and the “glycan array binding signal (z-score)” value [12] was 0.148. For the same binder, the “glycan array binding signal (z-score)” value [13] was -0.305, the “glycan array binding signal (z-score)” value [14] was 0.585 and the “glycan array binding signal (z-score)” value [15] was -0.24. For the same binder, the “glycan array binding signal (z-score)” value [16] was 1.4, the “glycan array binding signal (z-score)” value (Fuc(a1-2)Gal(b1-4)Glc) was -0.305 and the “glycan array binding signal (z-score)” value (Fuc(a1-2)Gal(b1-4)Glc6S) was -0.303. The “glycan array binding signal (z-score)” value (Fuc(a1-2)Gal(b1-4)GlcNAc) was -0.305, the “glycan array binding signal (z-score)” value [17] was 0.822 and the “glycan array binding signal (z-score)” value [18] was 2.29. For the same binder, the “glycan array binding signal (z-score)” value [19] was 1.05, the “glycan array binding signal (z-score)” value [20] was -0.305 and the “glycan array binding signal (z-score)” value [21] was -0.208. The “glycan array binding signal (z-score)” value [22] was -0.037, the “glycan array binding signal (z-score)” value [23] was 0.54 and the “glycan array binding signal (z-score)” value [24] was -0.305.

Source: the supplement of paper PMC8728848
